Data from the supplement of paper PMC3334620.
Whole data set: some 33,000 sequences, median “E-score (-0.5 to 0.5)” near -0.01, cut for the highest 2% near 0.26. The list shows a part of the results.

Target: Ste12 (UniProt P13574)
Test: PBM E-score (8-mer binding enrichment) (E-score (-0.5 to 0.5)); higher = stronger / more preferred TF binding; most listed sequences are background and not binding sites
Settings: protein concentration: 200 nM; construct: GST-DNA-binding domain
Procedure: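 Universal 'all 10-mer' protein binding microarrays (Agilent AMADID 015681) probed with GST-tagged S. cerevisiae TFs (full-length or DBD) made by in vitro transcription/translation (PURExpress), about 100-200 nM. Bound TF was detected with fluorescent anti-GST. Each ungapped 8-mer (which stands for itself and its reverse complement) is scored by the PBM enrichment score (E-score), a modified Wilcoxon-Mann-Whitney statistic from -0.5 to +0.5, computed with the Universal PBM Analysis Suite. Scale: above 0.35 generally sequence-specific binding.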

Sequence	PBM E-score
AGGTCACC	-0.313
AGCCAGAG	0.00321
AGATCATG	-0.223
ACGCCGGG	-0.00121
ACCCAGCT	-0.071
CGTGTTAC	0.0162
AGGGCATA	-0.0532
TACAGGCA	-0.0816
GTGTACAC	-0.224
ATTAAATC	0.248
GTATAATA	0.119
ATTGATTA	0.169
ACGTCGCC	0.096
ACCGGGGG	-0.274
GTCCTAAA	0.0583
GTGAGTAA	0.0208
ATATCAAT	0.21
ACATCTGA	-0.24
CGAAGTAA	0.0731
GCGATACA	-0.211
ATGGCCCC	-0.0581
ATCCTCTG	-0.0949
AATTGCAT	0.0393
CTAGATAA	0.0399
CCGCGCTA	0.0861

Sequence	PBM E-score
ACGTGTAT	-0.045
AACACTAG	0.0717
ATACGGCA	0.116
ATGAGTTA	-0.0873
AAATTTCC	0.00403
AGTAGGAT	-0.0907
ATACTAGA	0.103
TTCCAAAA	0.277
CGCGGGTA	0.0349
AACGACTG	-0.0997
AGCTGCAT	-0.275
CACCTACG	-0.125
GTTCCATA	0.145
ACAAATGT	0.101
CAGCAAGG	-0.117
GAGGAAGA	0.151
AGGGATGA	-0.0593
CAGAATTA	0.123
CAGTGGCA	-0.108
CTCGCGTA	-0.0404
GATGTGGC	-0.115
GTGTACCA	-0.0971
CCAGGACC	-0.124
ATTCACTA	-0.0173
GAGCGGAC	-0.175

Sequence	PBM E-score
TATATCGA	0.232
TGCACCCA	-0.0545
CCAACCCC	0.155
ACCATTAC	0.0314
CAACGTGG	-0.0597
ATAGGGTC	-0.0645
AGGTAGAC	-0.14
CGAAAGCA	-0.0179
GACTTCTC	-0.172
CATTGTCA	0.036
CTAACGAC	-0.115
ACTGTGCC	-0.218
AAGATCCG	-0.192
GGTTTAGA	0.175
ATCCATGC	-0.082
CCAACGTA	-0.0608
CCCTGAGA	-0.0977
CGAGGCCC	-0.0445
GGACAACC	0.00984
AACCTCCG	-0.101
TGAAACAA	0.493
TACGCAGA	-0.0364
ATCTGGGG	-0.207
CGTAAGAC	-0.117
GCGTCCCA	0.162

Sequence	PBM E-score
AAAGCCCT	-0.13
TAGTATAA	0.109
GCGTGGTA	0.0425
ACGAGGAA	0.162
ACGCGACT	-0.133
ATCACCTC	-0.0665
GTAGGGGA	-0.127
ATGCCAAT	0.0487
AGCGTCCC	0.0544
GAATAAAC	0.24
GTTTACCA	-0.0517
ATCGATAG	-0.0348
CATCTTAG	0.00228
ATCTCGGG	-0.00442
GCAGACCA	-0.217
ACGCGACA	0.0537
GCACTTTA	0.00477
ACTCCTGC	-0.0873
AAGCAGAG	-0.0736
AAGGCCTT	-0.172
CTTGTTAC	0.129
ATGGTTAA	-0.101
CGACTACC	-0.26
ATGCGACC	0.0993
GCATCCAA	-0.218

Sequence	PBM E-score
ACTAGCTC	-0.0963
GCGCGTCA	0.125
CCGTCTCA	0.0687
AATTTATA	0.274
CATGAAGG	-0.0613
ATTGGAGG	-0.0921
CATTCGGG	-0.0997
AGCAAGTG	-0.108
CAATACGG	0.0201
CCGTCGCA	0.176
CAGGCTTC	-0.0885
CAGTACAG	-0.104
AATTAGTC	0.218
AATCCCCT	0.129
GCCCAACA	-0.05
AGCTGATG	0.129
CCGGACTC	-0.0383
CAGTGCGA	-0.0982
CCGAAGCC	-0.254
ATAGTCGG	-0.291
GGCGCGGA	0.0771
ACGTCCCC	-0.0726
AGTGTGAC	-0.0574
CAGTAGGG	-0.176
ACAGTAGA	0.0868

Sequence	PBM E-score
ATCCTAGA	-0.0572
AGGGTACG	-0.0843
GCCGGTCC	-0.186
GCAGAGAA	-0.0727
CCGGGGAA	-0.0992
CGCGAGCC	0.0932
AATGGAAA	0.24
CGGCTCAC	-0.0168
AGTCCGAT	-0.00525
AATCACAA	0.0518
GTCTCAAC	0.129
AAGGGCAT	-0.154
AGCGGTAC	-0.187
AAAGGATA	0.19
ATTGAGAG	-0.0617
ACTGGTCA	-0.142
GATTATAA	0.23
ATATAGGG	0.00617
GTCGCCCA	-0.101
CACACTGA	-0.215
CTCACGCC	0.0411
GTACAGAA	-0.0717
GGGAGACC	-0.223
GTGATGTA	0.0612
AACCCGCC	0.0991

Sequence	PBM E-score
GGTTAAAA	0.256
ACACGTAA	-0.00152
CTACTACC	0.0108
TGCCTTAA	-0.0177
CCGAGCGC	0.0289
AATTGTTC	0.193
TAGTCTAA	-0.00981
CCTAAACA	0.247
ATATCCAA	0.101
GCAAGGCC	-0.0689
CGCTAACG	0.109
TTCTCCAA	0.187
GAAAGGGC	-0.164
AAGACAAG	0.0417
AATCGATC	0.0401
GCAAGTAC	-0.0853
CTGAGTCC	-0.263
AGATGTGG	-0.152
AGCATGAC	-0.0535
CTTGTCAC	0.00511
CGTGGGTA	-0.106
CCTATGCC	-0.0377
CACGGCCA	-0.0769
TGCGGTAA	0.0996
CCAGCAAG	-0.148

Sequence	PBM E-score
GGAGGGGA	0.366
GCCAACAA	0.0288
AGCAGACC	-0.14
AAGTCGTG	-0.111
GACTAACA	0.00808
CCTCTGTA	-0.00872
ACCGGTCC	-0.203
ACAAAACG	0.35
AATAGTGT	0.197
CGGTCACA	-0.017
GAGGTAGC	-0.239
CAGCATCC	-0.161
CCGAGGGC	-0.042
GATCCTGA	0.0809
AACCTAGG	0.18
GCCGGGAA	-0.198
AAACGACG	0.197
CGTGCTGA	-0.0362
AGCCTTAC	-0.234
TACCCCCA	-0.0324
CAAGATCC	-0.119
CACCCAAG	-0.101
GAGAACTA	0.065
TCATAGCA	0.119
CTTGAATC	-0.0161

Sequence	PBM E-score
CTGGAGGA	-0.0803
CCGACGAG	0.0607
CGGGGCAG	-0.125
CGCATTCA	0.115
GTCTCTTA	0.0395
CTAGTGGA	-0.0485
AATGCTAC	-0.0559
GAACCGCA	0.126
AACCTAGA	0.167
ATGACTGA	0.0792
AAGCAACG	0.00339
ATAGCGAC	-0.166
ACATGTCT	0.00606
AAAGTGAG	0.0652
ATTCGTCC	0.0908
ATATACGA	-0.114
CGCAGCGC	-0.129
ACGAAACT	0.127
AGAGGGCA	-0.313
GCGCCCAC	-0.0585
AGCGCTGA	-0.0271
CATGGCAG	0.051
GCTGATCA	0.0563
TATTGAAA	0.304
ATTCTTGA	0.245

Sequence	PBM E-score
ATTGCCCG	-0.0235
ATGATCAA	0.0665
GGTCCTAC	-0.244
ATCAACCA	0.00511
CCGAGCCG	0.0994
CCGGTTAC	0.0536
ATGTAGCC	-0.0235
ACATTGGA	0.0307
ACGAAGCT	-0.00048
AGAGCCGC	-0.107
ATTTAATG	0.272
CGCGCCAA	0.153
TGAAGGAA	0.0433
ACGGGTCG	0.16
ATATCACC	0.159
CCGCAACA	0.0766
CGCATCAG	0.0867
CCGTTCTA	0.0298
TCTCCAAA	0.043
ACTCATTC	0.119
GTATATTA	0.126
CGCTATCC	0.101
AGGTCTAC	-0.142
AAGTGCTG	-0.121
AAAGGCTT	-0.0812

Sequence	PBM E-score
AATGTTGA	0.0935
TGATAGAA	0.0265
GATTCTTA	0.125
ACTAGTCG	-0.0477
CCCCTTAG	-0.173
ACTCTAAG	-0.0984
CGATTGCA	0.0549
CATCGAAG	-0.0352
AATTCTGG	0.039
ATTCGTGC	0.139
AACAACCC	0.181
CTGTCCTA	-0.125
GATTCGTA	0.141
CGTGTGAC	-0.0425
GCCATCCA	-0.0231
ATCTAGTA	0.119
GTCCGTAA	-0.0618
CCGGAGAA	0.118
ATGCTATG	-0.0427
GCTGTTCC	-0.121
ATCAGGGA	-0.13
AAGTTGGC	0.0566
CTTCCACC	-0.104
CCGGTACG	-0.186
AGGAGTAA	-0.0677

Sequence	PBM E-score
GAGCTTAA	-0.128
CCTTGGCG	-0.21
CGAATAGA	-0.119
ACTTATTA	0.264
ACCAGTTC	0.0206
CATAAGCG	-0.108
GCACTCGA	-0.0774
GGCTCGTA	0.137
AACCCTAC	-0.211
ATTATACG	0.181
ATGGACCC	0.00707
GTTTACAA	0.121
CTCATTAC	0.192
TCCGCCAA	-0.107
GGCATGCA	-0.22
ACTTGCTG	-5e-05
ACGGCCTC	-0.0585
AACAGGGA	0.158
CGAATGCA	-0.138
CATGTGTA	0.0862
AGGCCAAG	-0.126
AGGAGCAC	0.162
ACATCTTG	-0.151
AGATATTC	-0.0303
AATAAACG	0.0508

Sequence	PBM E-score
CAGAGTGC	-0.0984
AGCCTCTA	-0.0809
CCCACCCC	0.391
ATCGGGAC	-0.0587
CGTCTCCA	0.173
ACAAATAC	0.189
CAGCACCG	-0.0439
AAGGGATC	-0.0841
CGGAGATA	0.146
AGTCCAGA	-0.0802
AGGAGCTA	-0.305
ATCCCGTA	0.0926
GGTCACAC	-0.0972
ACGACTTA	-0.201
GACTGCAC	-0.128
CTGAAGAC	0.0622
CCGAGTAA	-0.0532
CTACCCTA	-0.0803
CCAGACAA	-0.0391
TACTACGA	-0.0361
TAACCCGA	-0.0489
TCCTCTAA	-0.0676
TAGGGTGA	0.141
AGTCGAAC	-0.0912
GAACATGC	-0.182

Sequence	PBM E-score
CAATCGCC	-0.0487
AGCGATCG	0.00873
ATCAGCAC	0.0754
AATTCAAT	0.0899
ACGAAATC	0.0884
GGGCGTCA	0.175
GCCGCCAA	-0.166
GATTTCAC	0.111
CCCTCACC	0.00597
CGCAAATA	0.0319
ATACATAT	0.294
AATGTAAG	0.11
ACGCAGGA	-0.0172
GATAATAC	0.0884
GCTTTAAA	0.155
AAGAGGGG	0.0546
CCGCGTCG	0.121
CCGACGCA	-0.132
AACCGGAA	0.144
